Test results taken from PubChem BioAssay AID651820 (National Center for Advancing Translational Sciences (NCATS), 2012).
About 12,000 (3.5%) of roughly 340,000 compounds were called active. Inconclusive means that the source gave no clear call. Such entries were picked first, then a sample of the others. The call rests on the fitted dose curve; in most records, active means well fitted inhibition curve with a large enough effect; inconclusive means small, poorly fitted or top-dose-only effect, or another doubt; inactive means no such curve, though single readings can be large or run the other way. No potency is given beside an inconclusive call; the fits are too rough.

Assay: qHTS Assay for Inhibitors of Hepatitis C Virus (HCV)
Settings: Huh7.5.1 HCVcc-Cre (HCVcc is cell-culture hepatitis C virus) infection, luciferase reporter, 44 h; activity change, negative = inhibition: at 41.8 µM (top of the series) unless noted
In short: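 Whole-lifecycle infectious HCVcc-Cre system; cells 1,000/well, compound then virus (~0.5 moi) added 4 h after plating, 44 h culture. Luciferase read 15 sec following 15 min substrate incubation, room temp.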
On the % scale 0 is the no-effect control and ±100 the full control effect; potency means the concentration at half of the fitted maximal effect; tags describe the fitted curve by direction and shape.

Row | Structure (SMILES) | Potency | activity change, negative = inhibition
1 | Cc1noc(C)c1S(=O)(=O)N(CC(=O)Nc1ccc2c(c1)OCCO2)c1ccc(C(C)C)cc1 | inconclusive [inhibitor, single point] | 
2 | O=C(NCC(c1ccco1)N1CCCCC1)c1ccc([N+](=O)[O-])s1 (stereo unspecified) | active: 0.562 µM | 
3 | CCc1ccc(O)c(N=Cc2cccc(C)c2O)c1 | inconclusive [inhibitor, full curve, poor fit] | 
4 | COc1ccc(NS(=O)(=O)c2ccc(C)c(C(=O)NNC(=O)c3ccccc3O)c2)cc1 | inconclusive [inhibitor, full curve, poor fit] | 
5 | C/C(=C\CNc1ncnc2nc[nH]c12)CO |  | inactive: -64.8%
6 | CC(C)Cc1ccc(C2=CSC3=NCCN23)cc1 | active: 11.2 µM | 
7 | COc1ccccc1N1CCN(C2CC(=O)N(c3cccc(Br)c3)C2=O)CC1 (stereo unspecified) |  | inactive: 14.5%
8 | COc1ccc(CN2C3CCCC2CC(NC(=O)Nc2ccccc2C)C3)cc1 (stereo unspecified) | inconclusive [inhibitor, single point] | 
9 | Cc1ccc2nc(NC(=O)c3ccc(OCC4CCCO4)cc3)sc2c1 (stereo unspecified) | active: 8.91 µM | 
10 | O=C(O)CC(Sc1n[nH]c(=S)s1)C(=O)O (stereo unspecified) |  | inactive: 16.7%
11 | CC1(C)CCC(=O)N2CC[C@H]3C[C@H](OC(=O)Nc4ccc(Br)cc4)C[C@@H]1[C@H]32 |  | inactive: 19.6%
12 | O=C(CCn1c(=S)oc2ccccc21)Nc1cccc(F)c1 | inconclusive [inhibitor, partial curve] | 
13 | COc1cc(/C=C2/C(=O)NN(c3cccc(C)c3)C2=O)cc([N+](=O)[O-])c1O |  | inactive: 11.6%
14 | CC1(C)CC(=O)C2=C(C1)N(c1ccc(Cl)cc1)C(=O)C2(O)C(F)(F)F (stereo unspecified) |  | inactive: -8.05%
15 | CCOc1ccc(NS(=O)(=O)c2ccc(NS(=O)(=O)c3ccccc3)cc2)cc1 | inconclusive [inhibitor, single point] | 
16 | Cc1ccc(C(=O)O/N=C/c2c(C(F)(F)F)nn(C)c2Sc2ccc(Cl)cc2)cc1 | inconclusive [inhibitor, single point] | 
17 | CCOC(=O)c1ccc(NC(=S)NCCCN2CCOCC2)cc1 |  | inactive: -13.3%
18 | CNC(=O)c1c(NC(=O)C2=COCCO2)sc2c1CCCC2 | inconclusive [inhibitor, full curve] | 
19 | OCCN(CCO)CC(O)COc1ccc(C23CC4CC(CC(C4)C2)C3)cc1 (stereo unspecified) | inconclusive [inhibitor, single point] | 
20 | CCCC(=O)NC(=S)Nc1ccc(S(=O)(=O)N2CCc3ccccc32)cc1 |  | inactive: -3.75%
21 | COc1ccccc1N1CCN(C(=O)CSc2nnc3n2C(C)(C)Cc2ccccc2-3)CC1 | active: 6.31 µM | 
22 | CCCn1c(-c2ccc(F)cc2)cnc1SCC(=O)O | inconclusive [inhibitor, single point] | 
23 | COc1cc2c(cc1OC)C(NC(=O)C(F)(F)F)C/C2=N\O (stereo unspecified) |  | inactive: -8.61%
24 | CNC(=O)c1ccc(Nc2nnc(-c3ccc(C)c(S(=O)(=O)NCC4CCCO4)c3)c3ccccc23)cc1 (stereo unspecified) | inconclusive [inhibitor, single point] | 

Row | Structure (SMILES) | Potency | activity change, negative = inhibition
25 | COC(=O)c1c(-c2ccsc2)sc2ccc(-c3cc(OC)c(OC)c(OC)c3)cc12 | inconclusive [inhibitor, partial curve] | 
26 | Cc1[nH]nc2c1/C(=N/O)CC(c1ccccc1)C2 (stereo unspecified) |  | inactive: -5.71%
27 | COc1ccc([N+](=O)[O-])cc1NC(=O)CSCc1ccc(Br)cc1 | inconclusive [inhibitor, single point] | 
28 | CCOC(=O)c1ccc(N2C(=O)Cc3ccccc3C2=O)cc1 |  | inactive: -10.6%
29 | O=Cc1c(Cl)nc2ccccn12 |  | inactive: 9.47%
30 | O=C(C[n+]1cccc(C(=O)N/N=C/c2cccc([N+](=O)[O-])c2)c1)c1ccccc1 | inconclusive [inhibitor, single point] | 
31 | COc1ccc(OC)c(S(=O)(=O)N2CCC(C(=O)N3CCN(Cc4ccccc4)CC3)CC2)c1 | inconclusive [inhibitor, partial curve] | 
32 | CC(=O)N1c2ccc(S(=O)(=O)N3CCCC(C(=O)N4CCCC(C)C4)C3)cc2CC1C (stereo unspecified) | inconclusive [inhibitor, single point] | 
33 | C/C(=N/Nc1cc(-c2ccccc2)nc(-c2ccccc2)n1)c1ccc(O)cc1 | inconclusive [inhibitor, partial curve, poor fit] | 
34 | Cc1c(C(=O)OCC2CCCO2)[nH]c2c1C(=O)CC(c1ccc(N(C)C)cc1)C2 (stereo unspecified) | inconclusive [inhibitor, partial curve] | 
35 | CC(=NNC(=S)Nc1cccc(C)c1)c1ccccn1 | active: 10 µM | 
36 | CCC(C)(C(=O)NC1CCCCC1)N(Cc1cccs1)C(=O)c1ccc(=O)[nH]c1 (stereo unspecified) |  | inactive: 0.0047%
37 | CCOc1cc(CNCCN(C)C)c(Cl)cc1OCC(=O)NCCc1ccccc1 | inconclusive [inhibitor, partial curve, poor fit] | 
38 | O=C(c1ccc([N+](=O)[O-])cc1)N(Cc1ccccc1)Cc1ccccc1 | inconclusive [inhibitor, single point] | 
39 | COC(=O)c1ccc(CNC(=O)CSC2=NCCS2)cc1 |  | inactive: -3.76%
40 | O=C1C=CC(=O)N1 | inconclusive [inhibitor, single point] | 
41 | CC(=O)c1ccc(N2CCN(c3ccc(S(=O)(=O)NCCN(C)C)cc3[N+](=O)[O-])CC2)cc1 | inconclusive [inhibitor, single point] | 
42 | Fc1ccc(-c2csc3ncnc(N4CCc5ccccc5C4)c23)cc1 | inconclusive [inhibitor, partial curve] | 
43 | Cc1cc(C)c(-c2csc(Cc3nc(-c4cc5ccccc5oc4=O)cs3)n2)cc1C | inconclusive [inhibitor, full curve] | 
44 | CC(C)(C)[C@H]1COC(=O)[C@H](NC(=O)OCC2c3ccccc3-c3ccccc32)C/C=C\C[C@@H](CC(=O)N[C@H](CO)Cc2ccccc2)C(=O)N1 | inconclusive [inhibitor, full curve] | 
45 | O=C(NCC1CCCN1S(=O)(=O)c1cccs1)c1ccc(Cl)cc1 (stereo unspecified) | inconclusive [inhibitor, partial curve] | 
46 | Cc1cc(C(=O)c2ccccc2)c(NC(=O)CCl)s1 | inconclusive [inhibitor, single point] | 
47 | O=C(c1ccc2c(=O)n3c(nc2c1)CCCCC3)N1CCN(c2ccc(Cl)cc2)CC1 | inconclusive [inhibitor, single point] | 
48 | COc1ccc(-n2c(C)c(C)c3c(NCCN(C)C)ncnc32)cc1 |  | inactive: -2.97%

Row | Structure (SMILES) | Potency | activity change, negative = inhibition
49 | CCC(CC)NCc1ccc2c(c1)c1ccccc1n2CC | active: 12.6 µM | 
50 | Cc1cc(C)c(-c2csc(NC(=O)CCCc3nc4ccccc4c(=O)[nH]3)n2)c(C)c1 | inconclusive [inhibitor, single point] | 
51 | N#Cc1cccc(NC(=O)COC(=O)CCc2nc3ccccc3c(=O)[nH]2)c1 |  | inactive: 2.78%
52 | Cc1ccc(NC(=O)N(C)c2ccccc2)cc1 |  | inactive: -11.2%
53 | O=[N+]([O-])c1ccccc1N/N=C/c1cccc(O)c1O |  | inactive: -27.8%
54 | Cc1occc1C(=O)NC1CCCN(Cc2ccc(CC(C)C)cc2)C1 (stereo unspecified) | inconclusive [inhibitor, single point] | 
55 | CC(Oc1ccc(F)cc1)C(=O)N(CCC1=CCCCC1)c1c(N)n(Cc2ccccc2)c(=O)[nH]c1=O (stereo unspecified) | inconclusive [inhibitor, single point] | 
56 | CC(SCC(=O)Nc1ccc(F)cc1)c1nc2ccccc2c(=O)[nH]1 (stereo unspecified) |  | inactive: 0.818%
57 | CC(C)=NNc1nc2c(c(=O)[nH]c(=O)n2C)n1CCc1ccccc1 | inconclusive [inhibitor, full curve] | 
58 | Cc1ccc(Cl)cc1NC(=S)N(CCCN1CCOCC1)Cc1ccco1 |  | inactive: -38.6%
59 | CC(C)(C)c1nc(SCC(=O)Nc2ccc3c(c2)OCCO3)c2ccccc2n1 | inconclusive [inhibitor, full curve, poor fit] | 
60 | CC1CN(S(=O)(=O)c2ccc(C(=O)Nc3nnc(-c4ccccn4)o3)cc2)CC(C)O1 (stereo unspecified) |  | inactive: 9.7%
61 | COc1ccccc1-c1nc(-c2ccccc2)nc(N2CCN(C)CC2)c1C#N | inconclusive [inhibitor, single point] | 
62 | Cc1cccc(-n2c(SCC(=O)Nc3cccc(S(=O)(=O)NC4=NCCCCC4)c3)nc3ccccc3c2=O)c1C | inconclusive [inhibitor, single point] | 
63 | C[N+]1(CC#CC(O)(c2ccccc2)c2ccccc2)CCCC1 |  | inactive: 21.9%
64 | COn1c(C)c(C)c2c3nonc3ccc21 | inconclusive [inhibitor, partial curve] | 
65 | CC(/C=C/c1ccccc1)=N\NC(=S)NC(C)C | inconclusive [inhibitor, partial curve] | 
66 | Cc1nn(C)c(C)c1NC(=O)CC12CC3CC(CC(C3)C1)C2 |  | inactive: -8.9%
67 | COc1ccccc1N1CCN(S(=O)(=O)c2ccc(-n3cnnn3)cc2)CC1 | inconclusive [inhibitor, single point] | 
68 | CC(=O)Nc1ccc(Nc2nc(-c3cc4ccccc4oc3=O)cs2)cc1 | inconclusive [inhibitor, partial curve] | 
69 | C=CCn1c(SCC(=O)NC2CCS(=O)(=O)C2)nnc1-c1cc2c(s1)CCC(CC)C2 (stereo unspecified) |  | inactive: -7.22%
70 | Nc1cccc2c(=O)c3ccccc3[nH]c12 | inconclusive [inhibitor, single point] | 
71 | Cc1ccc(C)c(S(=O)(=O)N2CCN(C(=O)c3ccc(-n4cncn4)c([N+](=O)[O-])c3)CC2)c1 | inconclusive [inhibitor, single point] | 
